The inconclusive results got no clear call from the source; some entries with a clear call stand among them for comparison. For part of these data: A potency beside an inconclusive call is a rough fit, not a confirmed value. Calls of active or inactive are those of the source. Unless noted, the call rests on the fitted dose curve; in most records, active means well fitted curve in the direction sought with a large enough effect; inconclusive means small, poorly fitted or top-dose-only effect, or another doubt; inactive means no such curve, though single readings can be large; an effect the other way counts as inactive or inconclusive.
Experiments:
[1] = qHTS of pediatric cancer cell lines to identify multiple opportunities for drug repurposing: Primary screen for BT-37 cells (AID 1347094);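 on activity change, negative = cytotoxic: plate controls were DMSO for no effect and bortezomib for full effect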
How it was run: (§1)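 Plated cells (500-1,000 per well, growth media) were allowed to settle for 5 hours, treated with compound dilutions for 48 hours, then lysed with CellTiter-Glo for 15 min at room temperature before luminescence reading.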

[2] = qHTS of pediatric cancer cell lines to identify multiple opportunities for drug repurposing: Primary screen for BT-12 cells (AID 1347101); further: nearly all actives have a fitted effect of over 25% in size
How it was run: (§2)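 Cells (500-1,000/well) rested 5 h, then received compounds for 48 h; metabolically active cells were measured by CellTiter-Glo luminescence. Final concentrations spanned up to 46 µM (MIPE, 11-point) or 0.59 nM-46 µM (NPC, 8-point) in primary screens, 11-point in follow-ups.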

[3] = qHTS of pediatric cancer cell lines to identify multiple opportunities for drug repurposing: Primary screen for OHS-50 cells (AID 1347103); further: nearly all actives have a fitted effect of over 40% in size;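 on activity change, negative = cytotoxic: plate controls were DMSO neutral control for no effect and bortezomib positive control for full effect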
How it was run: as §2

[4] = Primary qHTS for small molecule stabilizers of the endoplasmic reticulum resident proteome: Secreted ER Calcium Modulated Protein (SERCaMP) assay (AID 1508630); details: SH-SY5Y GLuc-SERCaMP (Gaussia luciferase released on ER calcium loss) secretion, thapsigargin, luminescence; activity change, negative = inhibition: at 38.4 µM (top of the series) unless noted; on activity change, negative = inhibition: on the % scale 0 is the no-effect control and ±100 the full control effect
How it was run: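 GLuc-SERCaMP-expressing SH-SY5Y cells, pretreated 16 h with compound, are challenged with thapsigargin to empty ER calcium stores; after 4 h, coelenterazine is added directly to the medium and luminescence is imaged.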

JEG-3 = test: Primary qHTS to identify gynecologic anti-cancer compounds using libraries of approved drugs and bioactive compounds (AID 1345084); details: Gynecologic cancer cell panel viability, ATPlite luminescence, 48 h; series mostly up to 57.5 µM; further: nearly all actives have a fitted effect of over 55% in size
How it was run: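 Five-concentration response, 48 h; readout is ATP-driven luciferase luminescence.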

[5] = NS1 protein of Zika virus - qHTS assay to identify small molecule inhibitors in human HEK 293 cells (AID 1347053); further: nearly all actives have a fitted effect of over 55% in size
How it was run: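 HEK 293 cells, seeded 20 h at 37 C, were pretreated with compound 1 h, then infected with ZIKV MR766 (MOI = 0.5) for 24 h. NS1 was read by TR-FRET with two anti-NS1 antibodies, normalized to uninfected and infected wells.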

[6] = qHTS of pediatric cancer cell lines to identify multiple opportunities for drug repurposing: Primary screen for DAOY cells (AID 1347090); details: DAOY medulloblastoma viability, CellTiter-Glo luminescence, 48 h; activity change, negative = cytotoxic: at 46 µM (top of the series); further: nearly all actives have a fitted effect of over 55% in size
How it was run: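 Cell viability, CellTiter-Glo luminescence; 500-1,000 cells/well, 8- or 11-point titration, 48 h compound exposure at 37 degrees C, 5% CO2. Controls: DMSO neutral, bortezomib 2.3 µM final as positive.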

[7] = qHTS of pediatric cancer cell lines to identify multiple opportunities for drug repurposing: Primary screen for NB-EBc1 cells (AID 1347095);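 on activity change, negative = cytotoxic: plate controls were DMSO neutral control for no effect and bortezomib for full effect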
How it was run: as §1

[8] = qHTS of pediatric cancer cell lines to identify multiple opportunities for drug repurposing: Primary screen for NB1643 cells (AID 1347099); further: nearly all actives have a fitted effect of over 50% in size
How it was run: as §1

[9] = qHTS of pediatric cancer cell lines to identify multiple opportunities for drug repurposing: Primary screen for LAN-5 cells (AID 1347100)
How it was run: as §2

[10] = molecular target: Cytochrome P450 2C9 (Homo sapiens) (UniProt P11712); test: Cytochrome P450 family 2 subfamily C member 9 (CYP2C9) small molecule antagonists: luciferase biochemical (cell-free) qHTS assay (AID 1645842; active means well fitted curve in the direction sought with a large enough effect in the repeat runs; inconclusive means weak or mixed curves; inactive means no such curve, though single readings can be large; an effect the other way counts as inactive or inconclusive; further: nearly all actives have a fitted effect of over 55% in size; on activity change, negative = inhibition: on the % scale 0 is the no-effect control and ±100 the full control effect)
Chain of UniProt P11712 (P11712 whole entry, looked up): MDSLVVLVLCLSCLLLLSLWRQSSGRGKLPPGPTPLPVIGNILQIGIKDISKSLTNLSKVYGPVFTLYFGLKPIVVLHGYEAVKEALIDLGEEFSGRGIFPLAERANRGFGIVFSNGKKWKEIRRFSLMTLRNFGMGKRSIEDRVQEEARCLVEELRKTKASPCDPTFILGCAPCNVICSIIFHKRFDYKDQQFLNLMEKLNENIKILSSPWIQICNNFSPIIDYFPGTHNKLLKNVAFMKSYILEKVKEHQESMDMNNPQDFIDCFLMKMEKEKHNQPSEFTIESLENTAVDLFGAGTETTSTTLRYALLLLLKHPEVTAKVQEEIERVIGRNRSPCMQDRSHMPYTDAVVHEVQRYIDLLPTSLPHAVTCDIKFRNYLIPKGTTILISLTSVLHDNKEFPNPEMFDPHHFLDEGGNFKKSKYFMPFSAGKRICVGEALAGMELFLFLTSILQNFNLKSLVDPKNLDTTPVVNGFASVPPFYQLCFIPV
How it was run: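 Luminescence, after 20 min with luciferin detection reagent, reflected CYP2C9 turnover during a 1 h NADPH-driven reaction at 37C. Enzyme-substrate mix contained 0.4% bovine serum albumin and was preincubated with compound 10 min at room temperature.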

MCC-26 = test: qHTS assay to identify novel small-molecules to repurpose for Merkel cell carcinoma treatment (AID 1296009); details: MCC and control cell lines, CellTiter-Glo viability, 72 h; activity change, negative = cytotoxicity: at 46 µM (top of the series); further: nearly all actives have a fitted effect of over 60% in size; on activity change, negative = cytotoxicity: on the % scale 0 is the no-effect control and ±100 the full control effect
How it was run: (§3)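 After compound transfer in DMSO, plates were kept 72 hr at 37 degree celsius. Luminescent ATP signal from CellTiter-Glo served as viability measure, normalized against DMSO and no-cell controls.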

MKL-2 = test: as above; details: MCC and control cell lines, CellTiter-Glo viability, 72 h; activity change, negative = cytotoxicity: at 46 µM (top of the series)
How it was run: as §3

WaGa = test: as above; details: MCC and control cell lines, CellTiter-Glo viability, 72 h; series mostly up to 46 µM
How it was run: as §3

[11] = qHTS to identify inhibitors of the type 1 interferon - major histocompatibility complex class I in skeletal muscle: primary screen against the NCATS Mechanism Interrogation Plate v5.0 (MIPE) Libary (AID 1347411); details: iHSKM cells + IFN-b, HiBiT-tagged MHC-I luminescence, 24 h; activity change, negative = inhibition: at 45.8 µM (top of the series); further: nearly all actives have a fitted effect of over 65% in size;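 on activity change, negative = inhibition: plate controls were vehicle for no effect and reference inhibitor for full effect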
How it was run: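 Cells were genome-edited human myoblasts carrying a HiBit tag on endogenous HLA-B. They were treated with IFN-beta (4.0 ng/ml) and titrated compounds (top 46 uM) for 24 hrs before lytic HiBiT detection.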

[12] = qHTS assay to identify inhibitors of the type 1 interferon - major histocompatibility complex class I in skeletal muscle: Counter screen cell viability and HiBit confirmation (AID 1347412); details: iHSKM muscle cells + IFN-b, HiBiT or CellTiter-Glo, 24 h; further: nearly all actives have a fitted effect of over 60% in size; on activity change, negative = inhibition: on the % scale 0 is the no-effect control and ±100 the full control effect
How it was run: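 Luminescence read-out: Nano-Glo HiBiT lytic signal from C-terminally HiBiT-tagged HLA-B in CRISPR-edited human myoblasts, plus CellTiter Glo ATP as viability counter screen. IFN-beta 4.0 ng/ml; 24 hrs treatment at 37 C, 5% CO2.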

[13] = qHTS of pediatric cancer cell lines to identify multiple opportunities for drug repurposing: Primary screen for SK-N-SH cells (AID 1347098); further: nearly all actives have a fitted effect of over 65% in size
How it was run: as §2

[14] = Quantitative High-Throughput drug screen in 47 multiple myeloma cell lines against the NCATS MIPE library collection: Karpas417_ECACC cell viability assay (AID 1918961); details: Karpas417 myeloma viability, CellTiter-Glo ATP luminescence, 48 h; viability (% of DMSO): at 45.8 µM (top of the series)
How it was run: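 We plated 500 myeloma cells per well, pinned in MIPE 4.0 compounds, and incubated for 48 hours at 37C. ATP was then quantified with CellTiter-Glo, with DMSO and media-only wells defining 100% and 0%.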

[15] = Quantitative High-Throughput drug screen in 47 multiple myeloma cell lines against the NCATS MIPE library collection: KMS20_JCRB cell viability assay (AID 1918973); details: CellTiter-Glo ATP, 48 h; viability (% of DMSO): at 45.8 µM (top of the series); further: nearly all actives have a fitted effect of over 45% in size
How it was run: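 qHTS of the MIPE 4.0 collection: 500 myeloma cells/well, 48 h drug exposure at 37C in 5% CO2, then CellTiter-Glo for 5 min at room temperature before luminescence reading.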

[16] = qHTS for identification of novel therapeutic agents for treatment of microphthalmiaassociated transcription factor (MiT) renal cell carcinoma (RCC) (AID 1963991; calls by dose curve); details: TFE3-RCC UOK109 viability, CellTiter-Glo, 48 h; active = Z-AUC below -0.8 in all three lines
How it was run: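 Three TFE3-fusion RCC cell lines (UOK109, UOK124, UOK145), 500 cells/well, were exposed to the 1912-compound MIPE 4.0 library for 48 hours at 37 C. Viability was read by CellTiter-Glo luminescence, normalised to DMSO (100%) and empty wells (0%), with 11-concentration curve fits.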
Potency means the concentration at half of the fitted maximal effect; tags describe the fitted curve by direction and shape.

CC(C)C[C@@H]1[C@H](c2ccccc2)OC(=O)N1CCCN1CCCCCC1
inactive: Potency [1]
inconclusive: Potency [2] 6.92 µM [cytotoxic, single point] | Potency [3] 27.6 µM [cytotoxic, partial curve, poor fit] | Potency [4] 6.31 µM [inhibitor, partial curve, poor fit]

COc1cc(CNC(=O)CCCC/C=C/C(C)C)ccc1O
inconclusive: Potency [4] 10 µM [inhibitor, full curve, poor fit]

COC1CC(=O)C23C(=O)NC(Cc4c[nH]c5ccccc45)C2C(C)C2(C)OC2C3/C=C/CC(C)CC1O (stereo not drawn)
inconclusive: Potency (JEG-3) 1.58 µM [cytotoxic, partial curve, poor fit]

CCCCCCCCCCCCCC[N+](C)(C)Cc1ccccc1
active: Potency [9] 21.1 µM | Potency (MCC-26) 21.1 µM | Potency (MKL-2) 1.06 µM | Potency (WaGa) 7.5 µM
inactive: Potency [4]
inconclusive: Potency [5] 35.5 µM [inhibitor, single point] | Potency [6] 26.6 µM [cytotoxic, single point] | Potency [7] 21.1 µM [cytotoxic, single point] | Potency [8] 26.6 µM [cytotoxic, single point] | Potency [10] 30.9 µM [inhibitor, single point] | Potency (JEG-3) 39.8 µM [cytotoxic, single point]

O=C(Cc1cccc(OC(F)(F)F)c1)Nc1ccc(CCCCc2nnc(NC(=O)Cc3ccccn3)s2)nn1
inactive: Potency [11]

CCCCCOc1ccccc1/C(=C\SC)n1ccnc1
inconclusive: Potency [1] 15.5 µM [cytotoxic, partial curve, poor fit] | Potency [7] 29.9 µM [cytotoxic, single point] | Potency [8] 33.5 µM [cytotoxic, single point] | Potency [2] 17.4 µM [cytotoxic, single point] | Potency [3] 13.8 µM [cytotoxic, partial curve] | Potency (MKL-2) 10.6 µM [inhibitor, partial curve] | Potency (WaGa) 33.5 µM [inhibitor, single point]

Cc1nc2c(-c3cnc(N)nc3)nc(N3CCOCC3)nc2n1C(C)C
inconclusive: Potency [11] 0.131 µM [inhibitor, full curve] | Potency (JEG-3) 2.82 µM [cytotoxic, full curve] | Potency ([12]; HiBiT) 0.557 µM [inhibitor, full curve] | Potency ([12]; Viability) 0.557 µM [cytotoxic, full curve]

O=c1[nH]cnc2c1ncn2[C@@H]1O[C@H](CO)[C@@H](O)[C@H]1O
inactive: Potency [1] | Potency [4] | Potency (WaGa)

CNC(=O)c1nn(C)c2c1C(C)(C)Cc1cnc(Nc3ccc(N4CCN(C)CC4)cc3)nc1-2
inconclusive: Potency [5] 37.2 µM [inhibitor, single point] | Potency [16] 0.372 µM [falling, full curve] | Potency (MCC-26) 3.72 µM [inhibitor, full curve]
inactive: activity change, negative = inhibition ([12]; Viability, at 45.9 µM (top of the series)) 28.9%
active: Potency [1] 1.72 µM | Potency [7] 2.35 µM | Potency [13] 1.71 µM | Potency [11] 5.23 µM | Potency [14] 0.833 µM | Potency [15] 2.96 µM | Potency (JEG-3) 11.2 µM | Potency ([12]; HiBiT) 1.98 µM

NCCNCCNCCNCCN
inactive: activity change, negative = inhibition [10] 18.2% [at 11.5 µM] | activity change, negative = cytotoxicity (WaGa) -2.21% [at 9.22 µM]

Cc1c(C)c2c(c(C)c1OC(=O)c1cccnc1)CC[C@@](C)(CCC[C@H](C)CCC[C@H](C)CCCC(C)C)O2
inactive: Potency [1] | Potency [4] | Potency (MCC-26)

CCCCCCCCCCCCSCCOCCO
inconclusive: Potency [9] 33.5 µM [cytotoxic, partial curve, poor fit] | Potency [3] 13.8 µM [cytotoxic, partial curve]
inactive: Potency [1] | Potency (MKL-2)

CCCCCCCCOc1ccc(C(=O)c2ccccc2)c(O)c1
inconclusive: Potency [4] 12.6 µM [inhibitor, single point]
inactive: Potency [1] | Potency [13] | Potency [3] | Potency (JEG-3) | Potency (MCC-26)

CCOC(=O)CN1CCCC1=O
inactive: Potency [7] | Potency [13] | Potency [3] | Potency (MCC-26)

From PubChem BioAssay (NCATS)
